The RNAGym collection of RNA variant scans (doi:10.7554/elife.90254)
Read counts are not given, so values of variants with three or more changes are uncertain.

B1: LINE1-mini (parent)
chain: GGCAGAGCUCAACACAGCGUGGCAAAGUGGCUGUGGCUAGACUGCC

Variants of: B1
Test: self-cleavage, relative activity (ratio to wild type); higher = more cleavage; in vitro, sequencing; the parent is a self-cleaving ribozyme

With GGCAGAGCUGAACACAGAGUGGCAAAGUGGCUGUGGCUACACUGCC [C10G C18A G40C] as the variant, how does the self-cleavage read?
Its self-cleavage is 0.02.

For GGCAGAGCUGAACACAGCGUUGCAAAGUGGCUGUGGCUAGAGUGCC [C10G G21U C42G], which self-cleavage is on record?
The self-cleavage was 0.02.

Which self-cleavage does the source give for GGCAGAGCUGAACACAGCGUGGUAAAGCGGCUGUGGCUAGACUGCC [C10G C23U U28C] here?
Its self-cleavage is 0.05.

Which self-cleavage does the source give for GGCAGAGCUGAACACAGCAUGGUAAAGUGGCUGUGGCUAGACUGCC [C10G G19A C23U] here?
Its self-cleavage is 0.1.

For GGCAGAGCUGAACACAGCGUCGCAAAGUUGUUGUGGCUAGACUGCC [C10G G21C G29U C31U], which self-cleavage is on record?
The self-cleavage was 0.05.

For GGCAGAGCUGAACACAGCUUGGCAAAGUGGCUGUGGCUAGACUGCA [C10G G19U C46A], which self-cleavage is on record?
Its self-cleavage is 0.05.

Which self-cleavage does the source give for GGCAGAGCUGAACACAGCGUGGUAAAGUGGCUGUGGCUCGACUGCA [C10G C23U A39C C46A] here?
The self-cleavage was 0.02.

Which self-cleavage does the source give for GGCAGAGCUGAACACAGUGUGGCAAAGGGGCUGUGGCUAGACUGCC [C10G C18U U28G] here?
The self-cleavage was 0.1.

For GGCAGAGCUGAACACAGCGUGGAAAAGUGGCUCUGGUUAGACUGCC [C10G C23A G33C C37U], which self-cleavage is on record?
Its self-cleavage is 0.

For GGCAGAGCUGAACACAGUGUGACAAAGUGGCUGUGGCUAGACUGCC [C10G C18U G22A], which self-cleavage is on record?
Its self-cleavage is 0.19.

Which self-cleavage does the source give for GGCAGAGCUGAACACAGCGUGGCAAAAUGGCUGUAGUUAGACUGCC [C10G G27A G35A C37U] here?
Its self-cleavage is 0.02.

With GGCAGAGCUGAACACAGCGUUGCAAAGUGGCUGUGGUUAGACUACC [C10G G21U C37U G44A] as the variant, how does the self-cleavage read?
Its self-cleavage is 0.03.

For GGCAGAGCUGAACACAGGGUGGCAAAGUGGCUGUGACUACACUGCC [C10G C18G G36A G40C], which self-cleavage is on record?
The self-cleavage was 0.

Which self-cleavage does the source give for GGCAGAGCUGAACACAGCUUGGCAAAGUGGCUGUGGCUGGACUGCC [C10G G19U A39G] here?
Its self-cleavage is 0.02.

With GGCAGAGCUGAACACAGCUUGGCAAAGUGGCUGUGGCUUGACUGCC [C10G G19U A39U] as the variant, how does the self-cleavage read?
Its self-cleavage is 0.05.

With GGCAGAGCUGAACACAACGUGUCAAAUUGGCUAUGGCUAGACUGCC [C10G G17A G22U G27U G33A] as the variant, how does the self-cleavage read?
Its self-cleavage is 0.01.

With GGCAGAGCUGAACACAGCGUGCCAAGGUGGCUGUGGCUGGACUGCC [C10G G22C A26G A39G] as the variant, how does the self-cleavage read?
The self-cleavage was 0.01.

With GGCAGAGCUGAACACAGGAUGGCAAAGUGGCUGUGGCUAGACUGCC [C10G C18G G19A] as the variant, how does the self-cleavage read?
Its self-cleavage is 0.05.

With GGCAGAGCUGAACACAGCAUGGCAGAGUGGCUGUGUCUAGACUGCC [C10G G19A A25G G36U] as the variant, how does the self-cleavage read?
The self-cleavage was 0.01.

With GGCAGAGCUGAACACAGUGUGGCAUACUGGCUGUGGCUAGACUGCC [C10G C18U A25U G27C] as the variant, how does the self-cleavage read?
Its self-cleavage is 0.04.

Which self-cleavage does the source give for GGCAGAGCUGAACACACCUUGGCAAAGUGGCUGUGGCUAGACUGCC [C10G G17C G19U] here?
The self-cleavage was 0.

For GGCAGAGCUGAACACAGCUUGGCAAAUUGGCUGUGGCUAGACUGUC [C10G G19U G27U C45U], which self-cleavage is on record?
Its self-cleavage is 0.02.

For GGCAGAGCUGAACACAGCGUGGCAAAGUGGGUGUGGCUAGUCUGCC [C10G C31G A41U], which self-cleavage is on record?
Its self-cleavage is 0.03.

For GGCAGAGCUGAACAUAGCGUGGCAAAGUGGCUGUGGCUAUACUGCC [C10G C15U G40U], which self-cleavage is on record?
Its self-cleavage is 0.01.

Which self-cleavage does the source give for GGCAGAGCUGAACACAGGGUGGCAAAGCGGCGGUGGCUAGACUGGC [C10G C18G U28C U32G C45G] here?
The self-cleavage was 0.

With GGCAGAGCUGAACACAGCCUGGCAAAGUGGCUGUGGCUAGACUCCC [C10G G19C G44C] as the variant, how does the self-cleavage read?
Its self-cleavage is 0.03.

For GGCAGAGCUGAACACAGCGUUGCAAAGUGGCUGUGCUUAGAUUGCC [C10G G21U G36C C37U C42U], which self-cleavage is on record?
Its self-cleavage is 0.01.

With GGCAGAGCUGAACACAGCUUGGCAAAGCGUCUGUGGCUAGACUGCC [C10G G19U U28C G30U] as the variant, how does the self-cleavage read?
The self-cleavage was 0.27.

For GGCAGAGCUGAACACAACGUGGCAAAGUGGCUGUGGCUAGACUGUC [C10G G17A C45U], which self-cleavage is on record?
Its self-cleavage is 0.

Which self-cleavage does the source give for GGCAGAGCUGAACACAGCAUGGCAAAGUGGCUGUGGCUAGAAUUGC [C10G G19A C42A G44U C45G] here?
Its self-cleavage is 0.05.

Which self-cleavage does the source give for GGCAGAGCUGAACACAGCGUGGAUAAGUGGCUGUGGUAAGACUGCA [C10G C23A A24U C37U U38A C46A] here?
Its self-cleavage is 0.01.

For GGCAGAGCUGAACACAGUGUGGCAAAGUGGCUGUGACUAGACUGAC [C10G C18U G36A C45A], which self-cleavage is on record?
The self-cleavage was 0.01.

With GGCAGAGCUGAACACAGCGUGGCAAAGUGGCUGUGGCUAGAGUAUC [C10G C42G G44A C45U] as the variant, how does the self-cleavage read?
Its self-cleavage is 0.03.

Which self-cleavage does the source give for GGCAGAGCUGAACACAGGGUGGCAUAGUGGCUUAGGCUAGACAGCC [C10G C18G A25U G33U U34A U43A] here?
The self-cleavage was 0.01.

For GGCAGAGCUGAACACAGCGUAGCAAAGUGGCUCUGGCUAGACUGCC [C10G G21A G33C], which self-cleavage is on record?
The self-cleavage was 0.03.

Which self-cleavage does the source give for GGCAGAGCUGAACACAGCGUGCCAAAGUGGCUGUGGCUACACUGAC [C10G G22C G40C C45A] here?
Its self-cleavage is 0.

With GGCAGAGCUGAACACAACGUGGCAAAGUGGCUGUGUCUAGACUGCC [C10G G17A G36U] as the variant, how does the self-cleavage read?
The self-cleavage was 0.02.

For GGCAGAGCUGAACACAGCGUGGUAAAGUGCCUGUGGCUAGACUGGC [C10G C23U G30C C45G], which self-cleavage is on record?
Its self-cleavage is 0.02.

For GGCAGAGCUGAACACAGCGUGGCAAACUGGCUGUGGCUUGACUGCC [C10G G27C A39U], which self-cleavage is on record?
The self-cleavage was 0.08.

With GGCAGAGCUGAACAGAGCGUGGCAAAGUGGCUGUGGCUAGACUAGC [C10G C15G G44A C45G] as the variant, how does the self-cleavage read?
The self-cleavage was 0.02.

For GGCAGAGCUGAACACAGCGUGGCAAAAUGGCUGUGGCUAGACCGCC [C10G G27A U43C], which self-cleavage is on record?
The self-cleavage was 0.01.

For GGCAGAGCUGAACACAGCGUCGCAAAGUGGCUGUGGCUACACUGCC [C10G G21C G40C], which self-cleavage is on record?
The self-cleavage was 0.04.

With GGCAGAGCUGAACACAUCGUGGCCAAGCGGCUGUGGCUAGACUGCC [C10G G17U A24C U28C] as the variant, how does the self-cleavage read?
The self-cleavage was 0.04.

Which self-cleavage does the source give for GGCAGAGCUGAACACAGCAUGGCAAAGUGGCUGUGUCUACACUGCC [C10G G19A G36U G40C] here?
The self-cleavage was 0.

For GGCAGAGCUGAACACAGCGUGGCAAAGUGGAUGUGGCUAGACUCCC [C10G C31A G44C], which self-cleavage is on record?
Its self-cleavage is 0.04.

With GGCAGAGCUGAACACAGCGUUGCAAAUUGGCUGUGUCUAGACUGCC [C10G G21U G27U G36U] as the variant, how does the self-cleavage read?
The self-cleavage was 0.01.

With GGCAGAGCUGAACACAGCGUGGCAAACUAGCUGUGGCUAGACUGCC [C10G G27C G29A] as the variant, how does the self-cleavage read?
The self-cleavage was 0.02.

For GGCAGAGCUGAACACAGCGUAGGAAAGUGGCUGUGGCUAGACUGCC [C10G G21A C23G], which self-cleavage is on record?
The self-cleavage was 0.07.

With GGCAGAGCUGAACACAGCGUAGAAAAGUGGCUGUGGCUAGACUGCC [C10G G21A C23A] as the variant, how does the self-cleavage read?
Its self-cleavage is 0.08.

With GGCAGAGCUGAACACAGCAUGGCAAAGUGGCUGUGGCUAGACUGGC [C10G G19A C45G] as the variant, how does the self-cleavage read?
Its self-cleavage is 0.07.

With GGCAGAGCUGAACACAGCGUGGUAGACUGUCUGUGGCUAGACAGCC [C10G C23U A25G G27C G30U U43A] as the variant, how does the self-cleavage read?
Its self-cleavage is 0.02.

Which self-cleavage does the source give for GGCAGAGCUGAACAUAGCGUGGCAAUGUGGAUGUGGCUAGACUGCC [C10G C15U A26U C31A] here?
The self-cleavage was 0.02.

Which self-cleavage does the source give for GGCAGAGCUGAACACAGCCGGUCAAAGUGGCUGUGGCUAGACUGCC [C10G G19C U20G G22U] here?
Its self-cleavage is 0.03.

Which self-cleavage does the source give for GGCAGAGCUGAACACAGCGUGCCAAAGAGGCUGAGGCUAGACUGCC [C10G G22C U28A U34A] here?
The self-cleavage was 0.

Which self-cleavage does the source give for GGCAGAGCUGAACACAGCGUGUCCAAGUCGCUAUGGCUAGACUGCC [C10G G22U A24C G29C G33A] here?
The self-cleavage was 0.

With GGCAGAGCUGAACACAGCGUGGCAAAUUGGUUGUGACUAGACUUCA [C10G G27U C31U G36A G44U C46A] as the variant, how does the self-cleavage read?
Its self-cleavage is 0.01.
